For two molecules, binding results are on record in article PMC5869904.

By UniProt entry, the sequences of proteins in these tests, tags left out. Residues count along the entry.
UniProt Q9WV18, residues 20-960: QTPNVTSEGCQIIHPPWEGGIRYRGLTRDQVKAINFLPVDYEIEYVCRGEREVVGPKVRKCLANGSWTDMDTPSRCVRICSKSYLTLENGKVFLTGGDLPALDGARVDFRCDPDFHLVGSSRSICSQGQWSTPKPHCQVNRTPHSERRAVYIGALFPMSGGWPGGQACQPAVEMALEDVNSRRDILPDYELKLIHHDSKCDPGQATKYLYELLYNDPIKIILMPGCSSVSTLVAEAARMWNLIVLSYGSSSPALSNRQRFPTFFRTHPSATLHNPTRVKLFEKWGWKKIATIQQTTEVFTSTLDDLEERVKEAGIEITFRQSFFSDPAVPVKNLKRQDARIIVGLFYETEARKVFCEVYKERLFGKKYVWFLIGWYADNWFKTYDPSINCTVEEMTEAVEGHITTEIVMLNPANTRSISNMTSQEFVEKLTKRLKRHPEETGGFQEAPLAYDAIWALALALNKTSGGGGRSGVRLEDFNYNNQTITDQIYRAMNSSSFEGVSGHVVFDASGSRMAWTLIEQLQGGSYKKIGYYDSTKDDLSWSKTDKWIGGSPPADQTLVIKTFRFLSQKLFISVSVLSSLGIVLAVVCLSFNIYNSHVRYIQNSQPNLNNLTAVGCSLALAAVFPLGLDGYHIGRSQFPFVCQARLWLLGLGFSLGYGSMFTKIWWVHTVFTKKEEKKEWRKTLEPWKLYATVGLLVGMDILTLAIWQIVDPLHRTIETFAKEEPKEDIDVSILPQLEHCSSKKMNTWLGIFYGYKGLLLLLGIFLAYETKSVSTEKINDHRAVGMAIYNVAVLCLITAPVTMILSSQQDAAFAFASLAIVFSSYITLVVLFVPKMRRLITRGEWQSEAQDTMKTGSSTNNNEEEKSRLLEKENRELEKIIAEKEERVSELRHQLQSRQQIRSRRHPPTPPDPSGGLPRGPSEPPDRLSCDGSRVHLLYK
UniProt P97445: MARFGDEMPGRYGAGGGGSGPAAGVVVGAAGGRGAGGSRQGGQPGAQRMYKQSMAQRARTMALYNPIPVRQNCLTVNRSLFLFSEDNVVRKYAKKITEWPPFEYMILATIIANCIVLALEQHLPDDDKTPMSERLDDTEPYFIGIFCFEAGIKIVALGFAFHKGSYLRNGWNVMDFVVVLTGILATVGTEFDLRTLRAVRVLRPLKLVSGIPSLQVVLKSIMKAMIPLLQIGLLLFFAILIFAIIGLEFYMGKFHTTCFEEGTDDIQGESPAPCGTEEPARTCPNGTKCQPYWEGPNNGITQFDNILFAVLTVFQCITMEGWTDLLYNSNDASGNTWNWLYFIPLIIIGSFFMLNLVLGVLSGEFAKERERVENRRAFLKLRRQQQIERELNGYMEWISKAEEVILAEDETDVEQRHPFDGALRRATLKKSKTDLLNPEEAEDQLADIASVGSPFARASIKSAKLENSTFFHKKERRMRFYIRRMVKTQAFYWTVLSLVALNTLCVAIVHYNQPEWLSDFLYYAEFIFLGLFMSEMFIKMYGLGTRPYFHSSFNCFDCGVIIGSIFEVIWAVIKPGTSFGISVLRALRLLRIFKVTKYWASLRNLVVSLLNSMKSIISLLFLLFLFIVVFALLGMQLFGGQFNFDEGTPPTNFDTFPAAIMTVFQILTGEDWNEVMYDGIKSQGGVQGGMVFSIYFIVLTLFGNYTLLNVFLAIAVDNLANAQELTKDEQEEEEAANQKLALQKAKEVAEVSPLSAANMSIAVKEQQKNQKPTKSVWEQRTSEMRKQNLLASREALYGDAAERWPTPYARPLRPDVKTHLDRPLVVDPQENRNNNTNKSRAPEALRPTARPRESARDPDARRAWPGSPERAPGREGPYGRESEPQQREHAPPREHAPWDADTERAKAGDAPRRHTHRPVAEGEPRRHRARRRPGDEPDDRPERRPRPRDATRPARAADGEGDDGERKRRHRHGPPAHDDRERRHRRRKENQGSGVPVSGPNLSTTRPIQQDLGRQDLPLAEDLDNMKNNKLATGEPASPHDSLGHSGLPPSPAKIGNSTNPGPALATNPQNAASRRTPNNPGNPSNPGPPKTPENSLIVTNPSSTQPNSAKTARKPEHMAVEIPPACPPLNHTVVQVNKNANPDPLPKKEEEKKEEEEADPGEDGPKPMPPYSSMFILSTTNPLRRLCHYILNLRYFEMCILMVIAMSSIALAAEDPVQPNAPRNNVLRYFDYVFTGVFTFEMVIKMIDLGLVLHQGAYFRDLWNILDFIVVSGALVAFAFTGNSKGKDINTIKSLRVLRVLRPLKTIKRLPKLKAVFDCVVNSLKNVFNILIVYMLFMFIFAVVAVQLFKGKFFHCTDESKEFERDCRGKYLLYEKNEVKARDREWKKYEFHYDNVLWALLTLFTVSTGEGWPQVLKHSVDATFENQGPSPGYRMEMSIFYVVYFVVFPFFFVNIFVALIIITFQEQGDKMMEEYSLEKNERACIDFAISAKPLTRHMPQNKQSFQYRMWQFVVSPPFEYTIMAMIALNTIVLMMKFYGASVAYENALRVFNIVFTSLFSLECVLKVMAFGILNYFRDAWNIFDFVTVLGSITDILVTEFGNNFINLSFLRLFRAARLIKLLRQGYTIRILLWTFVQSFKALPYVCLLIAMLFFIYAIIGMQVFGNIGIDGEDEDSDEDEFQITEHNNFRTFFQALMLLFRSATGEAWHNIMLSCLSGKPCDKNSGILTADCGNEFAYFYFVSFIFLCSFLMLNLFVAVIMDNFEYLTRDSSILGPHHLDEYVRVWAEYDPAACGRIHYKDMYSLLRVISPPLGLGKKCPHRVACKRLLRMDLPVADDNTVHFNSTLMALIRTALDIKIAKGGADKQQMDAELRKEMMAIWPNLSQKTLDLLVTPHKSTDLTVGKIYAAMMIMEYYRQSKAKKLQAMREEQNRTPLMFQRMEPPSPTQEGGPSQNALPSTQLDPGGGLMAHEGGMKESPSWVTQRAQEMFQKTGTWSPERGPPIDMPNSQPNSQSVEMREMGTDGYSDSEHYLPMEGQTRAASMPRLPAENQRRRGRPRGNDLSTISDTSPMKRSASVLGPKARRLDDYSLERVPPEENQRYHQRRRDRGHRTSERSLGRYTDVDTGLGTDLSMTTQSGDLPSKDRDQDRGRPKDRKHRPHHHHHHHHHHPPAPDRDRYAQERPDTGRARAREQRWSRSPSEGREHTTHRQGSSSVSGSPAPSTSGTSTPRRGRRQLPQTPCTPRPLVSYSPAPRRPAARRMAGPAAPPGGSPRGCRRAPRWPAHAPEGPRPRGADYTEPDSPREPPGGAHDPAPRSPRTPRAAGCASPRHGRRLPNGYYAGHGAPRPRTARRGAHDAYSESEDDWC

These are yes or no findings as the source states them, for the method shown. In cells and extracts the contact can be indirect. Some entries that bind do so weakly or less than the wild type.

Test [1] deals with T1, GIRK2 subunit of the G protein-gated inwardly rectifying K+ (GIRK/Kir3) channel (mouse (endogenous in cerebellum)) (UniProt P48542).
T1 sequence: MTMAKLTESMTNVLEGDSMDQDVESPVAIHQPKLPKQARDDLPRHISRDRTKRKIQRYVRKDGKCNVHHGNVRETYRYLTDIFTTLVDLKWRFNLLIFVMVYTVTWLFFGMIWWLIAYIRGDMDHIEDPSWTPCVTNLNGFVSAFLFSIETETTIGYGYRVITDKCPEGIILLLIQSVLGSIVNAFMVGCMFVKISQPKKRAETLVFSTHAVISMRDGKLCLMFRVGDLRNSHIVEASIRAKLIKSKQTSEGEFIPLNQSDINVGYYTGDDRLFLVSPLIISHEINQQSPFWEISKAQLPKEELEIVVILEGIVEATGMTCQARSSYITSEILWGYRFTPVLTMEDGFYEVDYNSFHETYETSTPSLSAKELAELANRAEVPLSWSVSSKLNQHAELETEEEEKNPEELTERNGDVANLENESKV
Kind of test: condition: only in extracts from GABAB1 receptor knockout (GABAB1-/-) cerebellum; co-IP; GABAB1 receptor knock-out (GABAB1-/-) mouse cerebellar membrane extract solubilised in RIPA buffer; 2 ug antibody overnight at 0-4 C, TrueBlot anti-rabbit Ig IP beads; immunoblot. In general terms: Immunoblotting shows a protein as a band on a membrane.

For test [2], the target named is T1, GIRK2 subunit of the G protein-gated inwardly rectifying K+ (GIRK/Kir3) channel (mouse (endogenous in cerebellum)). Description: co-IP; wild-type (GABAB1+/+) mouse cerebellar membrane extract solubilised in RIPA buffer (50 mM Tris-HCl pH 7.4, 100 mM NaCl, 1% Triton X-100, 0.5% sodium deoxycholate, 0.2% SDS, 1 mM EDTA); 2 ug antibody overnight at 0-4 C, TrueBlot anti-rabbit Ig IP beads; immunoblot.

In test [3] the target is GABAB1 subunit of the GABAB receptor (mouse (endogenous in cerebellum)) (UniProt Q9WV18). The test is described as above.
Test [4] deals with CaV2.1 subunit of P/Q-type voltage-dependent Ca2+ channels (mouse (endogenous in cerebellum)) (UniProt P97445). Kind of test: condition: only in extracts from GABAB1 receptor knockout (GABAB1-/-) cerebellum; co-IP; GABAB1 receptor knock-out (GABAB1-/-) mouse cerebellar membrane extract solubilised in RIPA buffer; 2 ug antibody overnight at 0-4 C, TrueBlot anti-rabbit Ig IP beads; immunoblot.

Test [5] shares this target. Description: co-IP; wild-type (GABAB1+/+) mouse cerebellar membrane extract solubilised in RIPA buffer (50 mM Tris-HCl pH 7.4, 100 mM NaCl, 1% Triton X-100, 0.5% sodium deoxycholate, 0.2% SDS, 1 mM EDTA); 2 ug antibody overnight at 0-4 C, TrueBlot anti-rabbit Ig IP beads; immunoblot.

For “CaV2.1 subunit of P/Q-type voltage-dependent Ca2+ channels (from UniProt P97445 1-2368)”, the binding entry in test [1] is “no binding”; in test [2], “binds”; in test [3], “binds”.

B1: GIRK2 subunit of the G protein-gated inwardly rectifying K+ (GIRK/Kir3) channel (protein, UniProt P48542 1-425)
chain: T1 sequence
For the molecule B1, the binding entry in test [4] is reported as “no binding”; in test [5] it was “binds”; in test [3], “binds”.
